About 150 (0.041%) of roughly 370,000 compounds were called active. The shares of active, inactive and inconclusive entries below differ from those in the screen. The call rests on the fitted dose curve; in most records, active means well fitted inhibition curve with a large enough effect; inconclusive means small, poorly fitted or top-dose-only effect; inactive means flat fitted curve, though single readings scatter. No potency is given beside an inconclusive call; the fits are too rough.
molecular target: Beta-lactamase (Escherichia coli (strain K12)) (UniProt P00811); experiment: qHTS Inhibitors of AmpC Beta-Lactamase (assay with detergent); details: AmpC hydrolysis of nitrocefin, absorbance 480 nm, 0.01% Triton; series mostly up to 114 µM; further: nearly all actives have a fitted effect of over 25% in size
Procedure, shortened: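 20 mM phosphate pH 7.0 + 0.01% (detergent screen) or 0.0001% Triton X-100; 5.3 nM AmpC reagent; cpd preinc 15 min RT; nitrocefin (800 uM stock) to start; A480 q20 s × 4 min; Activity was normalised to no-enzyme and no-compound control wells.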
Potency means the concentration at half of the fitted maximal effect; tags describe the fitted curve by direction and shape.

Chain of UniProt P00811 (P00811 whole entry, looked up): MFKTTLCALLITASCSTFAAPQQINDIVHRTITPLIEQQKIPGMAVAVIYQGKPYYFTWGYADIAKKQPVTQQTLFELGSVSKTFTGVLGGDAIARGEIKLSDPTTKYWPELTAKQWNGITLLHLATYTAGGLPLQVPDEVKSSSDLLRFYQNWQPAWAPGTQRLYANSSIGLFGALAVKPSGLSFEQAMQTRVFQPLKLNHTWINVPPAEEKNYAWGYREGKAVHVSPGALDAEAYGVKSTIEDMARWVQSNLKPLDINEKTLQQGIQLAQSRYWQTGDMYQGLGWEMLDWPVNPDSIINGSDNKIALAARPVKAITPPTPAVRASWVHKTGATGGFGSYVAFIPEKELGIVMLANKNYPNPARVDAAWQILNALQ

Compound | Potency
O=c1oc2cc(OCc3ccc(F)cc3F)ccc2cc1-c1ccccn1 | inconclusive [inhibitor, full curve, poor fit]
Cc1cc(C(C)(C)CC(C)(C)C)ccc1OCCOCC[N+](C)(C)Cc1ccccc1 | inconclusive [inhibitor, full curve, poor fit]
CC1CCN(C(=O)c2ccc(-c3ccccc3Cl)o2)CC1 | inconclusive [inhibitor, full curve, poor fit]
CC(NC(=O)c1ccc(NC(=O)c2ccco2)cc1)c1ccccc1 (stereo not given) | inconclusive [inhibitor, full curve, poor fit]
CCCCNc1nc2ccccc2nc1NS(=O)(=O)c1cccs1 | inconclusive [inhibitor, full curve, poor fit]
CCOC(=O)C1CCN(C(=O)Cc2ccc(-c3ccccc3)cc2)CC1 | inconclusive [inhibitor, full curve]
Cc1ccc(S(=O)(=O)N2CCOCC2)cc1NC(=O)COC(=O)c1ccc2c(c1)OCO2 | inconclusive [inhibitor, partial curve, poor fit]
Cc1cccc(N=C2NC(=O)/C(=C/c3cccn3C)S2)c1C | inactive
O=C1c2ccc(-c3ccc4c(c3)C(=O)N(CCO)C4=O)cc2C(=O)N1CCO | inconclusive [inhibitor, partial curve]
CCC(=O)N1CCc2cc(S(=O)(=O)CCC(=O)Nc3nc(C)cs3)ccc21 | inconclusive [inhibitor, single point]
CCC(C)NS(=O)(=O)c1ccc(OCC(=O)N2CCCC2)cc1 (stereo not given) | inconclusive [inhibitor, partial curve, poor fit]
CCN(CC)c1ccc(NC(=O)c2ccc(Br)o2)c(C)c1 | inconclusive [inhibitor, single point]
c1coc(CNCC2OCCc3ccccc32)c1 (stereo not given) | inconclusive [inhibitor, partial curve]
CCn1c(COc2cccc(C)c2)nnc1SCC(=O)N1CCCC1 | inconclusive [inhibitor, full curve, poor fit]
O=C1CCCN1CC(CN1CCOCC1)Sc1nc2ccccc2c(=O)n1-c1ccccc1 (stereo not given) | inconclusive [inhibitor, full curve, poor fit]
O=S(=O)(NCC(c1cccnc1)N1CCN(c2ccc(F)cc2)CC1)c1cccs1 (stereo not given) | inconclusive [inhibitor, full curve, poor fit]
C=CCn1c(NCc2ccccc2OC)nc2ccccc21 | inactive
COc1cc(-c2noc(-c3ccco3)n2)cc(OC)c1OC | inconclusive [inhibitor, full curve, poor fit]
O=C(NC1CCSC1=O)c1ccccc1 (stereo not given) | inconclusive [inhibitor, partial curve]
Cc1ccc(C(N)=Nc2ccccc2)cc1 | inactive

Compound | Potency
CC(C)Cc1nc(Nc2ccc(S(=O)(=O)N3CCCC3)cc2)c2nnn(Cc3ccccc3)c2n1 | inconclusive [inhibitor, partial curve, poor fit]
CCn1cc(CN2CCN(CC(C)(C)C)C(CCO)C2)c2ccccc21 (stereo not given) | inconclusive [inhibitor, partial curve, poor fit]
COc1ccc(C(C)NC(=O)C23CC4CC(CC(C4)C2)C3)cc1 (stereo not given) | inconclusive [inhibitor, full curve, poor fit]
CS(=O)(=O)NCCNc1cc(Cl)ccc1[N+](=O)[O-] | inconclusive [inhibitor, single point]
COCCn1nnnc1C(c1cc2cc(OC)c(OC)cc2[nH]c1=O)N1CCN(c2ccc(O)cc2)CC1 (stereo not given) | inactive
O=C(NN1CCCCC1)c1ccccc1 | inactive
O=C(c1ccco1)N1CCN=C1SCc1ccc(F)cc1 | inconclusive [inhibitor, full curve]
CCn1c(SCC(N)=O)nnc1-c1ccc(OC)c(OC)c1 | inconclusive [inhibitor, full curve, poor fit]
Nc1nonc1-n1nnc(C(=O)N/N=C/c2ccc(OCc3ccc(F)cc3)cc2)c1COc1ccccc1 | inconclusive [inhibitor, partial curve]
Cc1cccc(N2CCN(c3cccc(C)c3)C2c2cccnc2)c1 | inconclusive [inhibitor, partial curve, poor fit]
O=C(CNC(=O)c1ccc(Cl)cc1)Nc1ccccc1C(F)(F)F | inactive
COc1ccc(NC2=Nc3ccccc3N3C2=Nc2c(c(C)nn2-c2ccc(C)cc2)C3c2cccnc2)cc1 (stereo not given) | inconclusive [inhibitor, partial curve]
O=C(NCc1ccc2c(c1)OCO2)c1cccc2c1C(=O)N(C1CCCCC1)C2 | inconclusive [inhibitor, full curve, poor fit]
Cc1ccc(S(=O)(=O)N2CCC(C(=O)OCC(=O)N(C)Cc3ccccc3)CC2)cc1C | inconclusive [inhibitor, partial curve, poor fit]
CC1=NN(C(N)=S)C(=O)C1N=Nc1ccc(S(N)(=O)=O)cc1 (stereo not given) | inconclusive [inhibitor, partial curve, poor fit]
CCOC(=O)C1(CCc2ccccc2)CCN(Cc2ccc(NC(C)=O)cc2)CC1 | inconclusive [inhibitor, full curve]
COc1ccccc1N1CCN(C2CCCN(C(=O)CCC(=O)N(C)C)C2)CC1 (stereo not given) | inconclusive [inhibitor, full curve, poor fit]
Cc1ccn2c(=O)cc(COc3ccc(NC(=O)c4ccccc4F)cc3)nc2c1 | inactive
CN(C(=O)COC(=O)COc1ccc(Cl)cc1Cl)c1c(N)n(Cc2ccccc2)c(=O)[nH]c1=O | inconclusive [inhibitor, full curve, poor fit]
O=C1OC(c2ccc(Cl)cc2)=N/C1=C\c1cccnc1 | inconclusive [inhibitor, partial curve]
